The values that follow come from EP4603099A1 (priority 2022, dated 2024).

This assay concerns IAV-GFP. The settings on record: read-out: IC50 (GFP level); mouse cell line LA-4 infected with IAV-GFP (m.o.i. 1) for 19 hours.

For orientation: IC50 means the concentration at which inhibition is half-maximal. For the substance trifluoromethyl tubercidin [TFMT], the IC50 came to 7.7 µM.
